Whole data set: some 110,000 compounds, median “z-score” near -0.1, cut for the highest 2% near 2. The list shows a part of the results. Activity calls are given as the source filed them.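 The calls were made as follows: active = z-score in the third read window above 3 or below -3; inactive = the rest.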

The assay addresses Metabotropic glutamate receptor 8 (Rattus norvegicus) (UniProt P70579). The assay is described as follows: rat mGluR8 modulators via GIRK flux, primary screen, cell-based, thallium flux, HTS (AID 488969). The conditions noted are these: HEK293 rat mGluR8, GIRK (G protein-gated inwardly rectifying potassium channel) thallium flux, FluoZin2; at 10 µM; stronger effect = higher value; submaximal glutamate (EC20) added with thallium.
UniProt P70579, sequence (P70579 whole entry, looked up): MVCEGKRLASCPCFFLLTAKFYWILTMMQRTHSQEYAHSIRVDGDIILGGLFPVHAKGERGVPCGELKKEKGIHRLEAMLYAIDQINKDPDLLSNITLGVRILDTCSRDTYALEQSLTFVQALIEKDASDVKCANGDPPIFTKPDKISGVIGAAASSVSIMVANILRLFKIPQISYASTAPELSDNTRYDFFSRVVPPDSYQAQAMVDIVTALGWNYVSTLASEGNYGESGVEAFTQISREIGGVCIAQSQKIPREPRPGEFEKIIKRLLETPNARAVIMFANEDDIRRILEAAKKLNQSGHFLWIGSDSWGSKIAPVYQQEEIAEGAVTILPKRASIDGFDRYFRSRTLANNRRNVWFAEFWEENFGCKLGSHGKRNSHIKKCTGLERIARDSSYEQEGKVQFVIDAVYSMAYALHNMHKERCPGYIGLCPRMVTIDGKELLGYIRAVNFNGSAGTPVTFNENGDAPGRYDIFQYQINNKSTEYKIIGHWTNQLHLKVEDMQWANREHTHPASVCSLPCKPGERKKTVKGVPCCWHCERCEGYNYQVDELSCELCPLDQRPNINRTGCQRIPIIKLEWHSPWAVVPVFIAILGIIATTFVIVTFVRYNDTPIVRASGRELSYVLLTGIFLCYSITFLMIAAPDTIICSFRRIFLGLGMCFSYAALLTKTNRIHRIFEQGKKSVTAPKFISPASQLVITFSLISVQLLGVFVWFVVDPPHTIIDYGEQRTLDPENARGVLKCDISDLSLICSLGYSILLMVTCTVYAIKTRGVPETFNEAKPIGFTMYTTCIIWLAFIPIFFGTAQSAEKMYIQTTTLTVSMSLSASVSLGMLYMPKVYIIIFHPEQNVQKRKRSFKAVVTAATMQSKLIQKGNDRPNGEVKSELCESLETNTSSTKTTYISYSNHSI
`O=C(CN1C(=O)S/C(=C/c2ccc(N3CCOCC3)cc2)C1=O)N1CCOCC1` showed a z-score of -0.199.

With `COC(=O)CNC(=O)CN1c2cccc3cccc(c23)S1(=O)=O`, the z-score is -0.0323.

`COC(=O)c1ccc(CNC(=O)COC(=O)C2CCC(C(C)(C)C)CC2)cc1` (centres undefined) registered a z-score of -0.626.

In the case of `CC(C)(C)C(=O)NC(NC(=O)C(C)(C)C)c1ccc([N+](=O)[O-])cc1`, the z-score is -0.235.

In turn, `CCCCOc1ccc(-c2nnn(C(C)C(=O)OCC)n2)cc1` (centres undefined) displayed a z-score of -0.5.

As to `OCCN=Cc1c(O)[nH]c2ccccc12`, the z-score is -0.00527.

Compound `COc1cc(OC)cc(C(=O)NCC(=O)N2CCCCC2)c1` registered a z-score of 0.281.

`COc1cccc(C(=O)NCC(=O)N/N=C/c2cccc(OC(=O)c3ccc([N+](=O)[O-])cc3)c2)c1` registered a z-score of -0.566.

Take `CS(=O)(=O)c1ccc2nc(NC(=O)C3C4C=CC(C4)C3C(=O)O)sc2c1` (centres undefined): the z-score was active: 4.92.

In turn, `COc1ccccc1N1C(N)=NC(N)=NC1(C)C` had a z-score of -0.0746.

Compound `O=C(N/N=C1\CCCc2ccccc21)c1ccc([N+](=O)[O-])cc1` showed a z-score of 1.47.

In turn, `O=C(COC(=O)[C@H](Cc1ccccc1)NC(=O)c1cccs1)NC1CC1` displayed a z-score of -0.0981.

For the compound `Cc1cc2nnc(SCCCCN3C(=O)c4ccccc4C3=O)n2c2ccccc12`, the z-score was -0.317.

As for `CCOC(=O)c1cc(-c2ccc(C)o2)n[nH]1`, the z-score is 0.0347.

`CCN(CC)C(=O)N1c2ccccc2C=Cc2ccccc21` displayed a z-score of -0.214.

`CCOC(=O)c1c(NC(=O)C2C3C=CC(C3)C2C(=O)O)sc2c1CCC(CC)C2` (centres undefined): the z-score is active: 3.71.

`CCSc1ccccc1C(=O)NCCCn1ccnc1`: the z-score was -0.449.

Take `CN(C(=O)c1cc2n(n1)C(C(F)(F)F)CC(c1ccco1)N2)c1ccc(OC(F)(F)F)cc1` (centres undefined): the z-score was -0.386.

Turning to `Cc1cc(C)c(C#N)c(SCC(=O)Nc2nnc(-c3ccccc3)s2)n1`, the z-score is -0.27.

For the compound `O=C(CSCc1ccc([N+](=O)[O-])cc1)NN=C1CCCCCC1`, the z-score amounted to 0.0282.

For `CC(C)(CO)Nc1nc(Nc2ccccc2)nc(Nc2ccccc2)n1`, the z-score is -0.601.

Compound `CCn1c(=O)cc(SCC(=O)Nc2cccnc2)c2ccccc21` registered a z-score of 0.264.

Compound `CCCOc1ccc(/C(O)=C2/C(=O)C(=O)N(CCN(C)C)C2c2ccc(OC)c(OC)c2)cc1` (centres undefined) came in with a z-score of 0.296.

`COc1ccc(CC(=O)OCC(=O)NC(=O)NC23CC4CC(CC(C4)C2)C3)cc1` returned a z-score of -0.113.

`CCOC(=O)c1nc(S(C)(=O)=O)ncc1Cl` registered a z-score of -0.262.

In turn, `CC(C)C(NC=C1C(=O)OC(C)(C)OC1=O)C(=O)O` (centres undefined) displayed a z-score of -0.217.

For `COc1cc(/C=N/NC(=O)COc2ccc(C)cc2)ccc1OC(=O)c1cccs1`, the z-score was -0.0521.

In turn, `CCC1(C)Cc2c(sc3nc(SCC(=O)O)[nH]c(=O)c23)CO1` (centres undefined) gave a z-score of -0.292.

`Cc1ccc(C(=O)NCC(=O)OCC(=O)NC2CCS(=O)(=O)C2)cc1C` (centres undefined) yielded a z-score of -0.114.

As to `O=C(CCc1nc(-c2ccccc2)no1)NC1CCCCC1`, the z-score stood at 0.0483.

`C=C(C)C1CC=C(C)/C(=N\NC(=O)CNc2ccccc2OC)C1` (centres undefined) displayed a z-score of 0.0831.

With `O=C(O)c1ccc2c(c1)C(=O)N(C(Cc1ccccc1)C(=O)O)C2=O` (centres undefined), the z-score is -1.48.

`C/C(=N\NC(=O)c1ccccc1C)c1ccc(N2CCOCC2)cc1` gave a z-score of -0.197.

`O=C(CNC(=O)c1ccco1)OCc1ccc(C(=O)Oc2ccccc2)cc1` showed a z-score of -1.07.

Take `CC1CCCN(C2=C(NS(=O)(=O)c3ccc(Cl)cc3)C(=O)c3ccccc3C2=O)C1` (centres undefined): the z-score is -0.0456.

With `COc1ccc2oc(C)c(C(=O)Cn3ccnc3)c2c1`, the z-score is -0.317.

`CC(C)CNC(=O)CN(C1CCCCC1)S(C)(=O)=O` yielded a z-score of -0.0371.

The compound `CCCCCCCCNc1ncnc2ccccc12` had a z-score of 0.00268.

Regarding `Cc1ccc2c3c(cccc13)-c1ccccc1C2=O`, the z-score was -0.136.

Consider `Cc1cccc(OCCNC(=O)c2ncn[nH]2)c1`, for which the z-score was determined as 0.191.

`CN(C)C(=O)N1CCC(C(=O)NCc2ccc3c(c2)OCO3)CC1` yielded a z-score of 0.171.

In turn, `Cc1cccn2c(NC(=O)c3cccs3)c(-c3ccccc3)nc12` came in with a z-score of -0.404.

For the compound `CCc1ccc(NC(=O)COn2nnc3ccc(S(=O)(=O)N(C)C)cc32)cc1`, the z-score is -0.27.

Take `C=CCn1c(CSc2nc3ccccc3s2)nnc1SCC(=O)NCCN1CCOCC1`: the z-score is 0.312.

With `CSc1cc(-c2ccc(Cl)cc2)c(C(=O)N2CCCC2)s1`, the z-score stood at 1.8.

`O=C(Nc1cccc(S(=O)(=O)Nc2ccc(Cl)cc2)c1)c1cc2c(s1)CCCC2` showed a z-score of -0.189.

`COC(=O)c1ccccc1NC(=O)c1ccc(COc2ccc3c(c2)CCC3)cc1` returned a z-score of -0.271.

Compound `COc1ccc(/C=C/C(=O)c2nc3ccccc3n2CC(=O)c2ccc(OC)cc2)cc1` came in with a z-score of -1.11.

`COc1ccccc1N1CCN(C(=O)c2cc(-c3ccc(C)cc3)on2)CC1` registered a z-score of -0.356.

The compound `COCCCNCCOCCOc1ccc(C)cc1Br` came in with a z-score of -0.0942.

`O=C(COc1ccc(Cl)cc1Cl)NC(=O)N1CCOCC1`: the z-score is 0.0554.

`Clc1ccccc1-c1nc(-c2cccnc2)no1` yielded a z-score of 0.216.

Consider `COc1ccc2c(c1)c(C(O)CN1CCN(Cc3ccc4c(c3)OCO4)CC1)c(C)n2C` (centres undefined), for which the z-score was -0.597.

Compound `CC(C)(C)C(=O)c1sc2nc(-c3cccs3)cc(C(F)(F)F)c2c1N` returned a z-score of -0.0733.

As for `CN(CC(=O)O/N=C(\N)c1ccccn1)S(=O)(=O)c1cc(Cl)ccc1Cl`, the z-score is -0.477.

The compound `Clc1cccc(/C=N\Nc2nccs2)c1` yielded a z-score of -0.201.

The compound `O=C(CS(=O)CC(=O)N(CC(=O)NC1CCCC1)C1CCCCC1)Nc1ccc(F)cc1` (centres undefined) gave a z-score of -0.57.

Turning to `COc1ccc(OC)c(-c2cc(C(=O)Nc3c(C)nn(Cc4ccccc4Cl)c3C)no2)c1`, the z-score is -0.834.

Compound `CCn1cc(C(=O)OCc2cccc(Br)c2)c(=O)c2ccc(C)nc21` had a z-score of -0.797.

On to `COc1cccc(NC(=O)C2CCCCC2)c1`, for which the z-score worked out at 0.115.

`Cc1nn(-c2ccccc2)c(NC(=O)c2cccs2)c(-c2ccc(Cl)cc2)c1=O` returned a z-score of -0.358.

The compound `Cc1ccc(C)c(NC(=S)NCCc2ccc(S(N)(=O)=O)cc2)c1` displayed a z-score of -0.108.

Compound `O=[N+]([O-])c1ccc(N2CCOCC2)cc1NC(c1ccccc1)c1ccccc1` yielded a z-score of -0.00498.

In turn, `Cc1cccc(-c2nsc(SCC(=O)Nc3nccs3)n2)c1` had a z-score of -0.757.

Compound `CCOC(=O)c1c(C)oc2c(F)c(F)c(F)c(F)c2c1=O` registered a z-score of -0.807.

Regarding `O=C(C[n+]1cnn(CC(=O)c2ccc(Cl)cc2Cl)c1)c1ccc([N+](=O)[O-])cc1`, the z-score came to 0.134.

`CCC(=O)c1ccccc1OCCCn1cncn1` showed a z-score of 0.311.

`COc1ccc(C(C)=O)cc1CN1C(=O)NC2(CCCCC2)C1=O`: the z-score is -0.229.

Consider `CCCCC1C2=C(CC(C)(C)CC2=O)OC2=C1C(=O)CC(C)(C)C2`, for which the z-score is -0.821.

Compound `CCc1cccc2c(C(=O)CSc3nncn3-c3ccc(OC)cc3)c[nH]c12` registered a z-score of -0.101.

As for `COc1ccc(-c2noc(CCC(=O)NCC3CCN(Cc4cccc(C)c4)CC3)n2)cc1`, the z-score worked out at 0.183.

Compound `O=C(C1CCC1)N1CCc2cc(S(=O)(=O)N3CCCCC3)ccc21` had a z-score of 1.4.

As to `COc1cccc(-c2nc(CC(=O)O)cs2)c1OC`, the z-score was 0.492.

`O=c1cc(N2CCc3ccccc32)[nH]c(=O)n1-c1ccc(Br)cc1` came in with a z-score of -0.058.

Compound `CCOc1cc(/C=N/NC(=O)CNc2ccc(C)cc2)ccc1OC(=O)c1ccccc1` had a z-score of 0.0308.

As to `Cc1ccc2cc3c(N)c(C(=O)N4CC(=O)Nc5ccccc54)sc3nc2c1`, the z-score was -0.158.

For `CCCCCn1nc(-c2ccccc2)c2nc3ccccc3nc21`, the z-score is active: 14.9.

As for `Cc1c(C(=O)NC2CCCc3ccccc32)oc2ccc(S(=O)(=O)N3CCOCC3)cc12` (centres undefined), the z-score was -0.491.

`CCN(CC)CCCN1CC(O)=C(c2nc3ccccc3s2)C1=N` registered a z-score of -0.338.

In the case of `CCOC(=O)Nc1ccc2c(c1)N(C(=O)OCCN(C)C)c1ccccc1CC2`, the z-score stood at 0.202.

`CC12C(=O)N(c3ccccn3)C(=O)C1C1C=CC2C1` (centres undefined) returned a z-score of 0.329.

In turn, `Cc1ccc(N2CC(C(=O)Nc3cccc(F)c3)CC2=O)cc1` (centres undefined) came in with a z-score of 0.0105.

`COc1ccc(N2CCN(c3oc(COc4ccc(Cl)cc4Cl)nc3C#N)CC2)cc1` came in with a z-score of 1.29.

`CCOC(=O)/C(C#N)=C/c1cc2ccccc2nc1N1CCOCC1` returned a z-score of -0.315.

`CCc1ccccc1NC(=O)/C(=C/c1ccccc1)c1ccccc1` gave a z-score of -0.629.

The compound `CCN(CC)C(=O)C1CCC(CNS(=O)(=O)c2cccc3cccnc23)CC1` (centres undefined) had a z-score of 0.393.

Compound `CC1CCC2C(=O)N(c3cccc(OS(=O)(=O)c4ccccc4)c3)C(=O)C2C1` (centres undefined) showed a z-score of -0.479.

As to `CS(=O)(=O)N(CCC(=O)O)Cc1ccccc1`, the z-score was -0.0244.

The compound `O=C(c1ccccc1)N1CCN2C(=O)c3ccccc3C12c1ccc(Cl)cc1` (centres undefined) gave a z-score of -0.159.

Consider `O=C1NCCCc2c1oc1ccc(O)cc21`, for which the z-score was -0.602.

For the compound `COc1ccc2nc(SCC(=O)Nc3ccc4c(c3)OCCO4)[nH]c2c1`, the z-score was -0.486.

Turning to `Cc1ccc(S(=O)(=O)N2CCN(C(=O)CSc3nnc(C)s3)C2)cc1`, the z-score was -0.615.

`OC(COc1ccc(OCC(O)CN2CCCCCC2)cc1)CN1CCCCCC1` (centres undefined): the z-score was -0.0132.

`COc1cccc2c(=O)n(CC(=O)N3CCc4ccccc43)ccc12` registered a z-score of -0.372.

`O=C(N1CCOCC1)N(Cc1ccco1)CC1CCCO1` (centres undefined): the z-score was -0.533.

Compound `COc1cc(C)c(S(=O)(=O)N2CCN(C)CC2)cc1C` came in with a z-score of -0.109.

As for `COc1ccc(OC)c(Nc2cc(-c3ccccc3)nc(N)n2)c1`, the z-score is -1.96.

`c1ccc(CSc2nnc(-c3sccc3-n3cccc3)o2)cc1` yielded a z-score of -0.485.

In turn, `CCN(CC(=O)Nc1ccc([N+](=O)[O-])cc1OC)c1ccccc1` came in with a z-score of -0.139.

On to `Cc1ccc(S(=O)(=O)N2CCOCC2)cc1NC(=O)CSc1nnc2cc(C)c3ccccc3n12`, for which the z-score was -1.43.

On to `CCN(CC)C(=O)CC(c1ccc(F)cc1)c1ccco1` (centres undefined), for which the z-score was -0.394.

Regarding `CCOc1ccc(C(C(=O)Nc2ccc(F)cc2)N(C(=O)Cn2nnc3ccccc32)C2CC2)cc1` (centres undefined), the z-score was -0.0744.

As to `CCn1c2ccccc2c2cc(NC(=O)Cc3ccc(S(=O)(=O)N4CCOCC4)s3)ccc21`, the z-score came to 0.674.

`COc1ccc(NC(=O)CSc2nc(C)cc(C)n2)cc1` had a z-score of 0.0927.

As for `CC1(C)Cc2c(sc3c2C2=NCCN2C=N3)CO1`, the z-score is 0.0579.

Take `c1ccc(Oc2cccc(CN3CCCCC3)c2)cc1`: the z-score is -0.282.

`COc1ccccc1N1CCN(CC(=O)Nc2sccc2C#N)CC1` came in with a z-score of 0.31.

For `COc1ccc(CCCC(=O)NC2CCCCC2)cc1`, the z-score is -0.301.

`CN1CCN(CCCNC(=O)c2cc3c(=O)n(C)c4ccccc4c3s2)CC1` had a z-score of 1.89.

Values taken from PubChem BioAssay AID488969 (Vanderbilt High Throughput Screening Facility, 2010).
